According to the supplement of paper PMC8728848:
This is one part of the list.

What was measured:
Experiment in all cases: glycan array binding signal (z-score within array); higher = stronger binding
Conditions in all cases: glycan notation: IUPAC condensed, linker removed
[1] = biological target: Man(a1-2)Man(a1-3)[Man(a1-2)Man(a1-6)]Man(a1-6)[Man(a1-2)Man(a1-2)Man(a1-3)]Man
Outline: (§1)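 The Consortium for Functional Glycomics database supplied 3228 glycan arrays, of which those lacking an available protein sequence were dropped. The binding signal, a within-array Z-score, was averaged across arrays of the same protein sequence and across linkers. Negative scores can be read as non-binding.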

[2] = biological target: Man(a1-2)Man(a1-3)[Man(a1-2)Man(a1-6)]Man(a1-6)[Man(a1-2)Man(a1-2)Man(a1-3)]Man(b1-4)GlcNAc(b1-4)GlcNAc
Outline: as §1

[3] = biological target: Man(a1-2)Man(a1-3)[Man(a1-6)]Man(a1-6)[Man(a1-2)Man(a1-3)]Man(b1-4)GlcNAc(b1-4)GlcNAc
Outline: as §1

[4] = biological target: Man(a1-2)Man(a1-6)[Man(a1-3)]Man(a1-6)[Man(a1-2)Man(a1-2)Man(a1-3)]Man
Outline: as §1

[5] = biological target: Man(a1-2)Man(a1-6)[Man(a1-3)]Man(a1-6)[Man(a1-2)Man(a1-2)Man(a1-3)]Man(b1-4)GlcNAc(b1-4)GlcNAc
Outline: as §1

Man(a1-3)[Man(a1-6)]Man = biological target: Man(a1-3)[Man(a1-6)]Man
Outline: as §1

[6] = biological target: Man(a1-3)[Man(a1-6)]Man(a1-6)[Man(a1-2)Man(a1-3)]Man(b1-4)GlcNAc(b1-4)GlcNAc
Outline: as §1

[7] = biological target: Man(a1-3)[Man(a1-6)]Man(a1-6)[Man(a1-3)]Man
Outline: as §1

[8] = biological target: Man(a1-3)[Man(a1-6)]Man(a1-6)[Man(a1-3)]Man(b1-4)GlcNAc(b1-4)GlcNAc
Outline: as §1

[9] = biological target: Man(a1-3)[Man(a1-6)]Man(b1-4)GlcNAc(b1-4)GlcNAc
Outline: as §1

[10] = biological target: Man(a1-3)[Man(a1-6)]Man(b1-4)GlcNAc(b1-4)[Fuc(a1-6)]GlcNAc
Outline: as §1

Man(a1-6)Man = biological target: Man(a1-6)Man
Outline: as §1

Man(b1-4)GlcNAc = biological target: Man(b1-4)GlcNAc
Outline: as §1

MurNAc(b1-4)GlcNAc = biological target: MurNAc(b1-4)GlcNAc
Outline: as §1

Neu5Ac(a2-3)Gal = biological target: Neu5Ac(a2-3)Gal
Outline: as §1

[11] = biological target: Neu5Ac(a2-3)Gal(b1-3)GalNAc
Outline: as §1

[12] = biological target: Neu5Ac(a2-3)Gal(b1-3)GalNAc(b1-3)Gal(a1-4)Gal(b1-4)Glc
Outline: as §1

[13] = biological target: Neu5Ac(a2-3)Gal(b1-3)GalNAc(b1-4)Gal(b1-4)Glc
Outline: as §1

[14] = biological target: Neu5Ac(a2-3)Gal(b1-3)GalNAc(b1-4)[Neu5Ac(a2-3)]Gal(b1-4)Glc
Outline: as §1

[15] = biological target: Neu5Ac(a2-3)Gal(b1-3)GalNAc(b1-4)[Neu5Ac(a2-8)Neu5Ac(a2-3)]Gal(b1-4)Glc
Outline: as §1

[16] = biological target: Neu5Ac(a2-3)Gal(b1-3)GalNAc6S
Outline: as §1

[17] = biological target: Neu5Ac(a2-3)Gal(b1-3)GlcNAc
Outline: as §1

[18] = biological target: Neu5Ac(a2-3)Gal(b1-3)GlcNAc(b1-2)Man
Outline: as §1

[19] = biological target: Neu5Ac(a2-3)Gal(b1-3)GlcNAc(b1-2)Man(a1-3)[GlcNAc(b1-4)][Neu5Ac(a2-3)Gal(b1-3)GlcNAc(b1-2)Man(a1-6)]Man(b1-4)GlcNAc(b1-4)GlcNAc
Outline: as §1

[20] = biological target: Neu5Ac(a2-3)Gal(b1-3)GlcNAc(b1-2)Man(a1-3)[Neu5Ac(a2-3)Gal(b1-3)GlcNAc(b1-2)Man(a1-6)]Man(b1-4)GlcNAc(b1-4)GlcNAc
Outline: as §1

[21] = biological target: Neu5Ac(a2-3)Gal(b1-3)GlcNAc(b1-2)[Neu5Ac(a2-3)Gal(b1-3)GlcNAc(b1-4)]Man(a1-6)[Neu5Ac(a2-3)Gal(b1-3)GlcNAc(b1-2)Man(a1-3)]Man(b1-4)GlcNAc(b1-4)GlcNAc
Outline: as §1

[22] = biological target: Neu5Ac(a2-3)Gal(b1-3)GlcNAc(b1-3)Gal(b1-3)GlcNAc
Outline: as §1

[23] = biological target: Neu5Ac(a2-3)Gal(b1-3)GlcNAc(b1-3)Gal(b1-4)GlcNAc
Outline: as §1

[24] = biological target: Neu5Ac(a2-3)Gal(b1-3)GlcNAc(b1-3)GalNAc
Outline: as §1

[25] = biological target: Neu5Ac(a2-3)Gal(b1-3)GlcNAc(b1-6)GalNAc
Outline: as §1

[26] = biological target: Neu5Ac(a2-3)Gal(b1-3)GlcNAc6S
Outline: as §1

[27] = biological target: Neu5Ac(a2-3)Gal(b1-3)[Fuc(a1-4)]GlcNAc
Outline: as §1

[28] = biological target: Neu5Ac(a2-3)Gal(b1-3)[Fuc(a1-4)]GlcNAc(b1-3)Gal(b1-3)[Fuc(a1-4)]GlcNAc
Outline: as §1

[29] = biological target: Neu5Ac(a2-3)Gal(b1-3)[Fuc(a1-4)]GlcNAc(b1-3)Gal(b1-4)[Fuc(a1-3)]GlcNAc
Outline: as §1

[30] = biological target: Neu5Ac(a2-3)Gal(b1-3)[GlcNAc(b1-6)]GalNAc
Outline: as §1

[31] = biological target: Neu5Ac(a2-3)Gal(b1-3)[Neu5Ac(a2-6)]GalNAc
Outline: as §1

[32] = biological target: Neu5Ac(a2-3)Gal(b1-3)[Neu5Ac(a2-6)]GlcNAc(b1-3)[Fuc(a1-3)[Gal(b1-4)]GlcNAc(b1-6)]Gal(b1-4)Glc
Outline: as §1

[33] = biological target: Neu5Ac(a2-3)Gal(b1-3)]Neu5Ac(a2-3)Gal(b1-4)]GlcNAc
Outline: as §1

B1: HPL (Tachypleus tridentatus) (protein)
chain: MEDDCTCVTDRSLEGKLMKHPSTPAVYQILDGCRRLVPNPPTYNNIYKNWECIQSNILEKLLCKCDSLSNGAELIKGSGDTVYLLSNGVKRPIADPETFNGFCFDWNKIKTYSDIVINSLSTGPIIIIKHHHHHH
Q: How did the “glycan array binding signal (z-score)” value [1] turn out when B1 was run?
A: -0.288

Q: And the “glycan array binding signal (z-score)” value [2]?
A: 1.31

Q: And the “glycan array binding signal (z-score)” value [3]?
A: 0.005

Q: And the “glycan array binding signal (z-score)” value [4]?
A: -0.192

Q: What about the “glycan array binding signal (z-score)” value [5] of the same binder?
A: -0.205

Q: What about the “glycan array binding signal (z-score)” value (Man(a1-3)[Man(a1-6)]Man) of the same binder?
A: -0.108

Q: What about the “glycan array binding signal (z-score)” value [6] of the same binder?
A: 0.122

Q: What about the “glycan array binding signal (z-score)” value [7] of the same binder?
A: 1.26

Q: And the “glycan array binding signal (z-score)” value [8]?
A: 0.127

Q: And the “glycan array binding signal (z-score)” value [9]?
A: -0.093

Q: What about the “glycan array binding signal (z-score)” value [10] of the same binder?
A: -0.201

Q: And the “glycan array binding signal (z-score)” value (Man(a1-6)Man)?
A: 0.269

Q: What about the “glycan array binding signal (z-score)” value (Man(b1-4)GlcNAc) of the same binder?
A: 0.643

Q: And the “glycan array binding signal (z-score)” value (MurNAc(b1-4)GlcNAc)?
A: -0.265

Q: And the “glycan array binding signal (z-score)” value (Neu5Ac(a2-3)Gal)?
A: -0.227

Q: And the “glycan array binding signal (z-score)” value [11]?
A: -0.291

Q: And the “glycan array binding signal (z-score)” value [12]?
A: 0.002

Q: What about the “glycan array binding signal (z-score)” value [13] of the same binder?
A: 0.468

Q: And the “glycan array binding signal (z-score)” value [14]?
A: -0.28

Q: What about the “glycan array binding signal (z-score)” value [15] of the same binder?
A: -0.101

Q: What about the “glycan array binding signal (z-score)” value [16] of the same binder?
A: -0.245

Q: What about the “glycan array binding signal (z-score)” value [17] of the same binder?
A: -0.135

Q: And the “glycan array binding signal (z-score)” value [18]?
A: -0.264

Q: And the “glycan array binding signal (z-score)” value [19]?
A: -0.042

Q: And the “glycan array binding signal (z-score)” value [20]?
A: 2.02

Q: What about the “glycan array binding signal (z-score)” value [21] of the same binder?
A: 0.574

Q: And the “glycan array binding signal (z-score)” value [22]?
A: -0.294

Q: What about the “glycan array binding signal (z-score)” value [23] of the same binder?
A: -0.341

Q: And the “glycan array binding signal (z-score)” value [24]?
A: -0.225

Q: And the “glycan array binding signal (z-score)” value [25]?
A: -0.069

Q: And the “glycan array binding signal (z-score)” value [26]?
A: 0.017

Q: What about the “glycan array binding signal (z-score)” value [27] of the same binder?
A: -0.015

Q: What about the “glycan array binding signal (z-score)” value [28] of the same binder?
A: 0.058

Q: And the “glycan array binding signal (z-score)” value [29]?
A: 0.228

Q: What about the “glycan array binding signal (z-score)” value [30] of the same binder?
A: -0.336

Q: What about the “glycan array binding signal (z-score)” value [31] of the same binder?
A: -0.03

Q: And the “glycan array binding signal (z-score)” value [32]?
A: -0.312

Q: And the “glycan array binding signal (z-score)” value [33]?
A: -0.206
